# Laboratory results published in PMC6919601, “Identification of Plasmodium dipeptidyl aminopeptidase allosteric inhibitors by high throughput screening” (PLoS ONE, 2019).
# In all, about 110,000 compounds went through this assay and about 230 (0.21%) showed an effect of 50% or more. Some of the results follow.
# Target: DPAP1 (Plasmodium falciparum, UniProt Q8IIJ9)
# Test: primary screen, percent inhibition; read by cleavage of a fluorogenic dipeptide substrate; higher = more effect of the substance
# Parameters: species or system P. falciparum D10 trophozoite lysates; single well
# 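Note: 30 min substrate incubation versus DMSO and 10 µM JCP410 controls.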
# DPAP1, sequence (Q8IIJ9 whole entry, looked up): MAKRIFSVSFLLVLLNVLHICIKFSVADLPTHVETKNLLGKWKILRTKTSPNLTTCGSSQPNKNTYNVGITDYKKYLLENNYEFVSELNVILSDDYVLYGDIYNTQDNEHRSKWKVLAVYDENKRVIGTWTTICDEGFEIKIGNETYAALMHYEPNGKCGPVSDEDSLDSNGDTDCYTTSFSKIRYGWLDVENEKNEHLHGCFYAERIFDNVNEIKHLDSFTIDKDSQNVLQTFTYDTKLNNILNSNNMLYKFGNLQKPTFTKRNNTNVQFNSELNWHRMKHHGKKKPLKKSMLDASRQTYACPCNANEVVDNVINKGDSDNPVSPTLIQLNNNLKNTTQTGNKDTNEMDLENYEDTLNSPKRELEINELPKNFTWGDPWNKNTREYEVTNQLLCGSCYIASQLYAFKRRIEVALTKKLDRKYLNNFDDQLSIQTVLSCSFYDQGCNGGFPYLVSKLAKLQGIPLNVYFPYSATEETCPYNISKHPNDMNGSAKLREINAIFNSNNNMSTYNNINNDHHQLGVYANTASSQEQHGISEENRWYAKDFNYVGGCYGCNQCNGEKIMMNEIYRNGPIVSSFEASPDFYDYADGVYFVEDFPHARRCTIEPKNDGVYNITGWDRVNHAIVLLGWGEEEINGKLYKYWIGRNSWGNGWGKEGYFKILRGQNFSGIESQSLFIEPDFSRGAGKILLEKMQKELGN
row,Structure (SMILES),% Inhibition @ 10 uM [%]
1,O=C(O)CC(CN1C(=O)C(O)=C(C(=O)c2ccccc2)C1c1ccccc1F)c1ccccc1 (stereo not shown),5.03
2,N#Cc1c(NC(=O)c2cc(-c3cccc(O)c3)on2)sc2c1CCCC2,0.628
3,COc1ccc(OC)c(NC(=O)c2ccc(Oc3ccccc3)cc2)c1,-5.54
4,CN(C)S(=O)(=O)c1ccc(C(=O)NCCSc2c[nH]c3ccccc23)cc1,2.64
5,Cc1cc(NS(=O)(=O)c2ccc(NC(=O)c3ccc(C(C)C)cc3)cc2)nc(C)n1,-4.63
6,Cc1ccc(CCNC(=O)C2CCCN(S(C)(=O)=O)C2)cc1 (stereo not shown),0.514
7,Cc1ccc2[nH]c3c(c2c1)CCCC3(C)NC(N)=O (stereo not shown),-4.26
8,Cc1cc(-c2ccc(C)c(S(=O)(=O)N3CCN(c4ncccn4)CC3)c2)on1,2.24
9,CCOC(=O)N1CCN(c2nc(-c3cccc(Cl)c3)c3c(n2)-c2ccccc2OC3)CC1,-1.06
10,O=C(CSCc1cccc(Br)c1)N1CCN(c2ccccc2)CC1,-3.66
11,Cc1cc(NC(=O)c2cc3nc(-c4ccco4)cc(C(F)(F)Cl)n3n2)no1,-1.57
12,O=C(NCc1ccco1)C1c2ccccc2C(=O)N(C2CCCC2)C1c1cccs1 (stereo not shown),4.36
13,Cc1c(CCC(=O)N2CCCC2)c(=O)oc2c(C)c3occ(C(C)(C)C)c3cc12,7.17
14,Cc1cc(C)c(C(=O)c2ccc(C(=O)NC(C)(C)C)cc2)c(C)c1,-3.79
15,CC(NC(=O)c1ccccc1)c1ccc(Cl)cc1 (stereo not shown),-3.27
16,CCOc1ccc2c(c1)-c1c(sn(-c3ccc(C(C)C)cc3)c1=S)C(C)(C)N2,-2.48
17,N#CC1(NC(=O)[C@H](CC2CCCCC2)N[C@@H](c2cccc(-c3ccccc3)c2)C(F)(F)F)CC1,-4.82
18,O=c1oc2ccc(Br)cc2cc1-c1nc2ccccc2o1,5.42
19,CCOc1ccc(C2C3=C(O)CC(C)(C)CC3=Nc3nc4ccccc4n32)cc1OC (stereo not shown),-5.19
20,CS(=O)(=O)c1ncc(Cl)c(C(=O)N(Cc2ccccc2)Cc2ccco2)n1,-4.64
21,COc1cc(C2CC(=O)NC3=C2C(=O)CC(C)(C)C3)ccc1OC(C)C (stereo not shown),-4.16

row,Structure (SMILES),% Inhibition @ 10 uM [%]
1,CCc1nnc(NS(=O)(=O)c2ccc(NC(=O)c3ccc(F)c(F)c3)cc2)s1,-3.93
2,CCOC(=O)c1cc2[nH]c3c(c2cc1Cl)CCCC3,6.31
3,CC1(C)CC(=O)C2=C(C1)N(c1cccnc1)C(N)=C(C#N)C2c1ccc(Cl)cc1Cl (stereo not shown),-2.87
4,CCOc1ccc2nc(N3CCC(C(=O)NCc4ccccn4)CC3)sc2c1,0.137
5,NC(=O)C1CCN(C(=O)Cn2ncc3c4ccccc4n(Cc4cccc(Cl)c4)c3c2=O)CC1,3.4
6,CC(=O)c1cccc(NC(=O)COc2ccc(Br)cc2C)c1,2.95
7,O=S(=O)(NCc1ccc(CNS(=O)(=O)c2ccccc2)cc1)c1ccccc1,0.389
8,O=C(O)C1CC(=O)N(CCc2ccccc2)/C(=N/CCc2ccccc2)S1 (stereo not shown),5.12
9,CC1(C)CCCC(C)(C)N1CC(O)COCCOc1ccc(Br)cc1 (stereo not shown),2.84
10,CCC(C)Nc1nc(Nc2ccc([N+](=O)[O-])cc2)nc(OC(C(F)(F)F)C(F)(F)F)n1 (stereo not shown),-2.51
11,c1ccc(Cc2cn3c(-c4ccccc4)cnc3s2)cc1,2.26
12,COc1ccc(CNC(=O)c2c(C)cc(=O)oc2C)cc1,-2.26
13,COc1ccc(CNC2CCCC2)c2ccccc12,-1.15
14,Cn1c(=O)c2nc(N)[nH]c2n(C)c1=O,1.84
15,CN(C)c1ccc(/C=C2\C(=O)N(c3ccccc3)N=C2C(=O)O)cc1,1.91
16,CCN(CC)CCNc1nc(C)cc(COC)c1C(N)=O,7.99
17,CCOC(=O)N1CCN(S(=O)(=O)c2c(C)nc(O)nc2O)CC1,-5.76
18,CCOC(=O)C1=C(CN2CCN(Cc3ccc4c(c3)OCO4)CC2)NC(=O)NC1c1ccc(F)cc1 (stereo not shown),5.1
19,O=C(Nc1ccc(Sc2nc3ccccc3s2)c(Cl)c1)c1cc(Cl)cc(Cl)c1O,10.2
20,CCCCc1ccc(C(=O)N[C@@H](CC(C)C)C(=O)NCC#N)cc1,-1.41
21,Cc1cccc(NC(=O)CN2C(=O)N/C(=C/c3cc(C)n(-c4cc(C)ccn4)c3C)C2=O)c1,2.98

row,Structure (SMILES),% Inhibition @ 10 uM [%]
1,C=CCc1cc(/C=C/c2ccc3c(c2)OCO3)c(O)c(OC)c1,-2.86
2,O=C(O)/C(=C/C=C/c1ccccc1)NC(=O)c1ccccc1,-6.69
3,O=C(NCCn1ccc2ccccc21)c1ccc(-c2ccccc2)cc1,0.205
4,O=S(=O)(NCc1ccccc1Cl)c1c[nH]cn1,1.23
5,O=C(O)c1ccc(N2C(=O)C3C4c5ccccc5C(c5ccccc54)C3C2=O)cc1 (stereo not shown),4.82
6,O=C(O)CCCNC(=O)c1cn(-c2ccccc2)nc1-c1ccccc1,3.98
7,Cc1cc(O)c(C(=O)/C=C/c2ccccc2)c(=O)o1,1.63
8,CCN(CC)CCNC(=O)c1cnn(C)c1C1CCN(C(=O)OC(C)(C)C)CC1,0.536
9,COCC(C)NCc1cccc(C(F)(F)F)c1 (stereo not shown),-3.32
10,CN(CCc1ccccn1)C1CCCCCC1,-0.0908
11,Cc1ccc2c(CNCCc3ccccc3Cl)c(C(=O)O)n(Cc3ccc(F)cc3Cl)c2c1,5.12
12,CN1C(=O)C(C2(C#N)CCCCC2)C(=O)N(C)C1=O,-2.42
13,CCN1CCCC1CNC(=O)CCc1nnc2n(CCc3ccccc3)c(=O)c3ccccc3n12 (stereo not shown),-0.692
14,Cc1nn(-c2ccc(F)cc2)c(-n2cccc2)c1C(=O)NCCN(C)C,-7.44
15,CCOc1ccccc1C1=NC(C(F)(F)F)(C(F)(F)F)N=C(N(C)C)O1,-5.4
16,O=C(O)CCCCCNCc1ccccc1,-7.57
17,COCc1cc(C)nc(N)c1C(=O)NCC12CC3CC(CC(C3)C1)C2,-1.17
18,Cc1cc(C)n(C(=O)c2cc(Cl)nc3ccccc23)n1,-5.28
19,CC(C)(C)NC(=O)c1oc2ccccc2c1NC(=O)c1c(F)cccc1F,1.06
